Data: patent publication US20140093592A1, “[…] THE TREATMENT OF TREATMENT-[…] TREATMENT-RESISTANT DEPRESSION” (Janssen Pharmaceutica NV, priority 2012, published 2014)

Experiments:
[1] = system: adult subjects with treatment-resistant depression (TRD); test: Treatment Emergent Adverse Events (TEAEs), same clinical study; conditions: both doses of IV esketamine
[2] = system: adult subjects with treatment-resistant depression (TRD); test: Phase 2a clinical study of i.v. esketamine in TRD: MADRS total score; conditions: both doses IV; study duration

SMILES: CN[C@]1(c2ccccc2Cl)CCCCC1=O.Cl [Esketamine, (S)-2-(2-chlorophenyl)-2-(methylamino)cyclohexanone hydrochloride]
- Tolerability (in words) [1]: generally well-tolerated
- Duration over which the response was maintained [2]: 35 days
